Measured values as given in the supplement of paper PMC3334620.
Whole data set: some 33,000 sequences, median “E-score (-0.5 to 0.5)” near -0.021, cut for the highest 2% near 0.32. Some of the results follow.

The sequences below were run against T1, Zap1 (UniProt P47043) (assay: PBM E-score (8-mer binding enrichment) (E-score (-0.5 to 0.5)); higher = stronger / more preferred TF binding; most listed sequences are background and not binding sites). Settings: protein concentration: 200 nM; construct: GST-full length.
T1 sequence: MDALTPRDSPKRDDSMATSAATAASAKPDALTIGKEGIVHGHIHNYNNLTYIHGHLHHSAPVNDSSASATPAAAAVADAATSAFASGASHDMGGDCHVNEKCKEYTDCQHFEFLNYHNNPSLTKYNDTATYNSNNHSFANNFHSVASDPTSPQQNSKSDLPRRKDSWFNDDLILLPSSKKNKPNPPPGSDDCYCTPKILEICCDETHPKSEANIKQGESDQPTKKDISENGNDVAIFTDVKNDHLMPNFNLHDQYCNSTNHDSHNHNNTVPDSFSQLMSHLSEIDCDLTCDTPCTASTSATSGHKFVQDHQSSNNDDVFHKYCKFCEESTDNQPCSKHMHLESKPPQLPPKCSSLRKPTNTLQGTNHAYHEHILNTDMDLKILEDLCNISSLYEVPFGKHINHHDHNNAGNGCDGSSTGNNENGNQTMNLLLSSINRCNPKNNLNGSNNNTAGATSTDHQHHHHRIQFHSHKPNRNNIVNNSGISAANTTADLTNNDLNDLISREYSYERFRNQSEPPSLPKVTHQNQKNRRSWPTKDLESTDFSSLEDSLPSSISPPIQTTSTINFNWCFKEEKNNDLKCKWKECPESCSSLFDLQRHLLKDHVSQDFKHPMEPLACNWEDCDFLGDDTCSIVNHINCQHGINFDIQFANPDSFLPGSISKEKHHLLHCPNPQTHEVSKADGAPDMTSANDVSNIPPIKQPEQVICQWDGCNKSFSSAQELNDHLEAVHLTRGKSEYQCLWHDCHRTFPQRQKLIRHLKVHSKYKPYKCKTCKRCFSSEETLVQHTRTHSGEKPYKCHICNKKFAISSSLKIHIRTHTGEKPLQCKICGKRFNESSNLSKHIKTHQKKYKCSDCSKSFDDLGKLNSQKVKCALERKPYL
Method in brief: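 GST-tagged yeast TFs (full-length or DNA-binding domain) were made by PURExpress in vitro transcription/translation and applied at about 100-200 nM to universal all-10-mer Agilent arrays. The arrays were made double-stranded by primer extension, on fresh or once-stripped slides. Bound protein was detected with fluorescent anti-GST, and scans were normalised with masliner. Each ungapped eight-base word, pooled with its reverse complement, received an E-score (modified Wilcoxon-Mann-Whitney statistic) from the Universal PBM Analysis Suite.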

| Sequence | PBM E-score |
| --- | --- |
| AGATACTG | -0.0296 |
| AATTGCGT | 0.0206 |
| CATAATAA | 0.0342 |
| CACACAGC | 0.0274 |
| CCTGAATA | 0.16 |
| AATATTGC | -0.0194 |
| AATGACGA | -0.0215 |
| AAATGTGA | 0.106 |
| CCTTGTCA | 0.0134 |
| AGCGCTCA | -0.246 |
| ACACGGTC | 0.0091 |
| AGTTACAG | 0.171 |
| CACGATAG | -0.0513 |
| CCAAATGA | 0.197 |
| AGCTGGGC | -0.302 |
| GCAGTCAA | -0.169 |
| GATCATTA | 0.0548 |
| CGAACGCC | -0.304 |
| AGCGGAAT | -0.227 |
| GGCATTGA | -0.0797 |
| AAATTCGA | -0.0092 |
| AGATCGAC | -0.0492 |
| TCCACACA | 0.0139 |
| CTAAAAAG | 0.196 |
| CAGTGTCG | -0.178 |

| Sequence | PBM E-score |
| --- | --- |
| GCCAAGGC | -0.236 |
| AATATTTA | 0.137 |
| ATGCACTG | -0.185 |
| ATTGGGAG | -0.0694 |
| TAGCAATA | 0.106 |
| ACCAAAGA | 0.245 |
| CACTACTC | 0.111 |
| AGAACAAT | 0.233 |
| CGTATAGC | -0.0813 |
| GTCGTAAA | 0.0755 |
| CCAACACC | -0.0192 |
| AAAACTCC | -0.245 |
| AAAGTGTG | 0.071 |
| AGTCTACG | -0.144 |
| CAGGGTAG | 0.306 |
| GGTCCACC | 0.0426 |
| AGCAACAC | -0.0488 |
| AGCTATCA | -0.0689 |
| GTCCAGAC | -0.136 |
| GCTACTGA | -0.122 |
| CCTGCAAA | -0.129 |
| CAGTGACC | 0.276 |
| GAAAGAAA | 0.111 |
| ACTCCCGA | -0.0985 |
| AACGGTAA | 0.134 |

| Sequence | PBM E-score |
| --- | --- |
| GTAGGGTA | 0.429 |
| TACAAGAA | 0.0792 |
| GTAAGCAC | -0.088 |
| CTAGTCAC | -0.042 |
| CCGGGCTA | -0.185 |
| GTTGACAA | 0.152 |
| CACAGGTG | -0.0962 |
| CTGCCCAA | -0.118 |
| ATACGTGC | -0.122 |
| AACTACCC | 0.391 |
| AAGGTAGA | 0.106 |
| AGATTTAA | -0.0153 |
| ACACGCGC | -0.12 |
| CTAAGGCA | -0.0776 |
| CGTCCCAC | -0.131 |
| AATCGTAG | -0.0487 |
| GAGTTGCA | -0.0948 |
| CTCGAATA | -0.0835 |
| AAAGAATT | -0.0372 |
| ATGCACCG | -0.13 |
| CCGCACAA | -0.0646 |
| CAAAGAGG | 0.0514 |
| GATTCATA | -0.205 |
| AATCGACT | -0.176 |
| CTAGGAGC | -0.256 |

| Sequence | PBM E-score |
| --- | --- |
| CAATAGCC | -0.147 |
| ACGTGACT | -0.347 |
| CCTCGCTC | 0.0142 |
| TGGTTCAA | 0.104 |
| CCTAGCAA | 0.0808 |
| GACACGAC | 0.0622 |
| AAGATGAT | -0.0471 |
| AATGACTA | -0.136 |
| CGACCGCA | 0.0929 |
| ATGTGGGG | -0.15 |
| AGCTGTAG | -0.0501 |
| ACATTGGT | 0.0872 |
| GCCCCCAA | -0.197 |
| GGTAGAAC | -0.131 |
| ACTATAAG | 0.0772 |
| GAGGTGGC | -0.0769 |
| TGGATTAA | 0.0758 |
| CTCCCGTA | -0.194 |
| AGCCGAAA | 0.0407 |
| GGCTTGCA | -0.129 |
| CGCTGACA | -0.0531 |
| AATTTACC | 0.128 |
| GTGCTAAC | 0.0634 |
| CCACAATC | 0.0641 |
| ATCATATA | 0.125 |

| Sequence | PBM E-score |
| --- | --- |
| CTCCTATA | -0.187 |
| CGTGCCTC | -0.129 |
| GCACTTAC | -0.193 |
| TAAGGACA | 0.106 |
| GAACTGAA | 0.0377 |
| AGTCCGGC | -0.184 |
| ACATAGAG | -0.0301 |
| ACGTCTGA | -0.132 |
| CAGGAAGA | -0.192 |
| CTGACACC | 0.0297 |
| ACAATGCT | -0.223 |
| ACGGACCA | 0.124 |
| CTATAAGA | -0.158 |
| ACCACCAG | 0.175 |
| GCCCTTAC | -0.15 |
| ACTCGAGA | -0.0581 |
| CAGGGGCC | 0.148 |
| GCGGGCAC | -0.0378 |
| CTCCTCAG | -0.119 |
| GTCATCGA | -0.0929 |
| TCCGTCGA | -0.173 |
| CTTCCAGC | -0.294 |
| TCGAAACA | 0.0165 |
| GGCGCGCA | 0.00676 |
| TCCTGCGA | -0.0548 |

| Sequence | PBM E-score |
| --- | --- |
| ATGCTTTA | -0.158 |
| CGGAGGTA | 0.144 |
| AGAGGTCG | 0.304 |
| AGCTTTTC | -0.151 |
| CTCGAGTA | 0.111 |
| CTTGTAAC | 0.215 |
| AGGTTACG | 0.459 |
| CCGCAGTA | 0.0709 |
| GTAAGCAA | -0.00929 |
| ACATTAGT | -0.0193 |
| AATACTTA | 0.0505 |
| TACGAGGA | 0.119 |
| CTTTTGGC | 0.121 |
| AATGCAAC | 0.122 |
| ATACTTAA | 0.175 |
| TAATTCGA | 0.132 |
| ATTTCAGC | -0.1 |
| CTGACATC | -0.0898 |
| CAGTTTAA | 0.00566 |
| ACCTGGGA | -0.0403 |
| CTGCCATC | -0.274 |
| AAGTGGTC | 0.2 |
| GAGGTACC | 0.432 |
| ACCCGCTA | 0.211 |
| ATTCTGTA | -0.0359 |

| Sequence | PBM E-score |
| --- | --- |
| AGAAGTAA | 0.135 |
| CGACACCC | 0.188 |
| CGCATCTA | 0.0411 |
| CATGTCCC | 0.0076 |
| AAATTATG | 0.0908 |
| CCGTTAAG | 0.14 |
| TGCAATAA | 0.31 |
| GATCAGCC | -0.265 |
| AACGTGAC | -0.0506 |
| CGGATTGA | -0.107 |
| CGGTAGAA | -0.257 |
| ATTGACGG | -0.0196 |
| AGTTTGGG | 0.131 |
| AGCGGATC | -0.172 |
| AATGATGC | -0.0857 |
| AGCAAAAC | 0.0587 |
| AATCAGTG | 0.00466 |
| CAGGTAAA | 0.133 |
| CACACCGA | 0.0911 |
| GGTTGACA | -0.052 |
| ACATAACT | 0.149 |
| CATGCGAG | -0.214 |
